# Results as given in the supplement of paper PMC8047034.
# Where a name gives a salt, the structure may show the parent alone. The list shows a part of the results. Repeats are few or missing, and single values can be far off.
# System: Ov4Carbo
# Assay: log2 surviving fraction (library drug vs vehicle, or drug + carboplatin vs carboplatin alone; relative to plate median); ovarian cancer lines: OVCAR4 is platinum-sensitive and Ov4Carbo platinum-resistant; higher = more cell survival
# Conditions: library drug concentration 10 µM; 7 days; carboplatin co-treatment 0 µM
row,Compound,log2 surviving fraction
1,Nc1nc(O)c2ncn(CCC(CO)CO)c2n1 [Penciclovir],-0.359
2,CC1=C(/C=C/C(C)=C/C=C/C(C)=C\C(=O)O)C(C)(C)CCC1 [Isotretinoin],-0.892
3,NCC[C@H](O)C(=O)N[C@@H]1C[C@H](N)[C@@H](O[C@H]2O[C@H](CN)[C@@H](O)[C@H](O)[C@H]2O)[C@H](O)[C@H]1O[C@H]1O[C@H](CO)[C@@H](O)[C@H](N)[C@H]1O [Amikacin sulfate],0.667
4,Cc1cccc(Nc2ccncc2S(=O)(=O)NC(=O)NC(C)C)c1 [Torsemide (Demadex)],0.0175
5,O=C1CC[C@@]2(O)[C@H]3Cc4ccc(O)c5c4[C@@]2(CCN3CC2CC2)[C@H]1O5 [Naltrexone HCl],-0.341
6,NC(=O)c1cccnc1 [Nicotinamide (Niacinamide)],0.55
7,OC[C@@H](O)[C@@H](O)[C@H](O)[C@@H](O)CO [Sorbitol (Glucitol)],0.998
8,C=C1CC[C@H](O)C/C1=C/C=C1\CCC[C@]2(C)[C@@H]([C@H](C)CCCC(C)(C)O)CC[C@@H]12 [Calcifediol],-1.59
9,CCCc1nc(C)c2c(=O)nc(-c3cc(S(=O)(=O)N4CCN(CC)CC4)ccc3OCC)[nH]n12 [Vardenafil (Vivanza)],0.467
10,C[C@@](Cc1ccc(O)c(O)c1)(NN)C(=O)O [Carbidopa],0.528
11,N#CC1(c2ccc(NC(=O)c3cccnc3NCc3ccncc3)cc2)CCCC1 [Apatinib (YN968D1)],-0.307
12,N[C@@H](C(=O)N[C@@H]1C(=O)N2C(C(=O)O)=C(Cl)CS[C@H]12)c1ccccc1 [Cefaclor (Ceclor)],0.0236
13,Cc1noc(NS(=O)(=O)c2ccc(N)cc2)c1C [Sulfisoxazole],0.369
14,C=CCN1CC[C@]23c4c5ccc(O)c4O[C@H]2C(=O)CC[C@@]3(O)[C@H]1C5 [Naloxone HCl],1.42
15,C=C1c2c(Cl)ccc(O)c2C(=O)C2=C(O)[C@]3(O)C(=O)C(C(N)=O)=C(O)[C@@H](N(C)C)[C@@H]3[C@@H](O)[C@H]12.O=C(O)c1cc(S(=O)(=O)O)ccc1O [Meclocycline Sulfosalicylate],-1.77
16,Cc1nc2n(c(=O)c1CCN1CCC(c3noc4cc(F)ccc34)CC1)CCCC2O (stereo not given) [Paliperidone (Invega)],1.1
17,Cc1nnc(NS(=O)(=O)c2ccc(N)cc2)s1 [Sulfamethizole (Proklar)],-1.48
18,O=C(CCNNC(=O)c1ccncc1)NCc1ccccc1 [Nialamide],-0.736
19,N#CC[C@H](C1CCCC1)n1cc(-c2ncnc3[nH]ccc23)cn1,0.558
20,O=c1[nH]c2ccccc2n1CCCN1CCC(n2c(=O)[nH]c3cc(Cl)ccc32)CC1 [Domperidone (Motilium)],-1.61

row,Compound,log2 surviving fraction
1,Cc1nnc(C(C)C)n1C1C[C@H]2CC[C@@H](C1)N2CC[C@H](NC(=O)C1CCC(F)(F)CC1)c1ccccc1 (stereo in doubt) [Maraviroc],0.638
2,NCC(=O)CCC(=O)O [5-Aminolevulinic acid hydrochloride],0.444
3,CCN(CC)CC(=O)Nc1c(C)cccc1C [Lidocaine (Alphacaine)],0.482
4,CCCN[C@H]1CCc2nc(N)sc2C1 [Pramipexole (Mirapex)],0.146
5,CC1CC(OC(=O)C(O)c2ccccc2)CC(C)(C)C1 (stereo not given) [Cyclandelate],-0.0147
6,CCC(=O)OCC(=O)[C@@]1(OC(=O)CC)[C@@H](C)C[C@H]2[C@@H]3CCC4=CC(=O)C=C[C@]4(C)[C@@]3(F)[C@@H](O)C[C@@]21C [Betamethasone Dipropionate (Diprolene)],1.25
7,COC(c1ccccc1)(c1ccccc1)[C@H](Oc1nc(C)cc(C)n1)C(=O)O [Ambrisentan],0.389
8,Cc1cnc(C(=O)O)c[n+]1[O-] [Acipimox],-1.23
9,CCN(CC)C(=O)/C(C#N)=C/c1cc(O)c(O)c([N+](=O)[O-])c1 [Entacapone],0.0309
10,CC[C@H]1OC(=O)[C@H](C)[C@@H](O[C@H]2C[C@@](C)(OC)[C@@H](O)[C@H](C)O2)[C@H](C)[C@@H](O[C@@H]2O[C@H](C)C[C@H](N(C)C)[C@H]2O)[C@](C)(O)C[C@@H](C)/C(=N\OCOCCOC)[C@H](C)[C@@H](O)[C@]1(C)O [Roxithromycin (Roxl-150)],-0.361
11,CN(C)CCCN1c2ccccc2CCc2ccc(Cl)cc21 [Clomipramine hydrochloride (Anafranil)],-2.66
12,COc1ncnc(NS(=O)(=O)c2ccc(N)cc2)c1OC [Sulfadoxine (Sulphadoxine)],0.618
13,CC(N)C12CC3CC(CC(C3)C1)C2 (stereo not given) [Rimantadine (Flumadine)],-1.25
14,COC(=O)C1=CO[C@@H](O)[C@@H]2C(CO)=CC[C@H]12 [Genipin],1.48
15,O=c1ccn([C@@H]2O[C@H](CO)[C@@H](O)[C@H]2O)c(=O)[nH]1 [Uridine],-0.216
16,CO[C@H]1O[C@@H]2O[C@@]3(C)CC[C@H]4[C@H](C)CC[C@@H]([C@H]1C)[C@@]24OO3 [Artemether (SM-224)],-0.273
17,CCOc1nc2cccc(C(=O)O)c2n1Cc1ccc(-c2ccccc2-c2nnn[nH]2)cc1 [Candesartan (Atacand)],0.549
18,CN1C(=O)CCS(=O)(=O)C1c1ccc(Cl)cc1 (stereo not given) [Chlormezanone (Trancopal)],0.809
19,CN1CC2c3ccccc3Oc3ccc(Cl)cc3C2C1 (stereo not given) [Asenapine],-1.01
20,Nc1ccn([C@@H]2O[C@H](CO)[C@@H](O)[C@H]2O)c(=O)n1 [Cytidine],-0.209
